The test system of this test is Plasmodium falciparum NF54 stage V gametocytes. The test can be described thus: viability index relative to DMSO control (fraction); higher = less gametocyte killing. To be noted: 2.5 µM, library set: Broad Institute DOS, incubation time: 72 h. The method, boiled down: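 Gametocytes (P. falciparum NF54, stage V) were treated with compound at 2.5 µM for 72 hr at 37°C in low oxygen, in serum-free medium at 0.75% gametocytemia and 1.25% hematocrit. Counts of 20–70 µm2 red particles, taken from one field per well after MitoTracker Red CMXRos with saponin, were divided by the plate mean of solvent-only wells. This ratio is the viability index.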

± gives the uncertainty stated by the source. In all, about 9,900 compounds were measured (“viability index relative to DMSO control”: median about 1, lowest 2% from about 0.85 on). The list shows a part of the results.

Turning to `COc1ccc2c3c([nH]c2c1)[C@@H](CO)N(Cc1ccccn1)C[C@]31CCN(CC1)C(C)=O`, the viability index was found to be 0.975 ± 0.18.

For `COc1cccc(NC(=O)N2C[C@H](O)COC[C@@H]3O[C@H](CC(=O)N(C)C)CC[C@H]32)c1`, the viability index came to 0.982 ± 0.081.

As for `COc1cccc(-c2ccc3c(c2)[C@H]2[C@H](CCN2C(=O)c2ccccn2)[C@@H](CO)N3)c1`, the viability index amounted to 1.02 ± 0.068.

`COCC(=O)Nc1ccc2c(c1)C(=O)N(C)C[C@H](OC)[C@@H](C)CN(CCc1ccccc1)[C@@H](C)CO2` had a viability index of 1.05 ± 0.037.

Take `CO[C@@H]1CN(C)C(=O)c2cc(NC(=O)c3ccc(Oc4ccccc4)cc3)ccc2OC[C@H](C)NC[C@H]1C`: the viability index was found to be 0.983 ± 0.053.

Compound `CN1[C@H](CO)[C@H]2c3ccccc3N(C(=O)Nc3cc(F)ccc3F)C[C@H]21` gave a viability index of 1 ± 0.052.

The compound `COc1ccc(CNC(=O)N(C)C[C@@H]2OCc3ccccc3-c3c(n(C)c4ccccc34)C(=O)N([C@H](C)CO)C[C@H]2C)cc1` gave a viability index of 0.994 ± 0.019.

Turning to `O=C(c1cnccn1)N1CC(=O)N2[C@@H](CO)[C@H](c3ccc(-c4cccc(F)c4)cc3)[C@@H]2C1`, the viability index stood at 1 ± 0.049.

For `CN1c2ccc(Br)cc2[C@H]2[C@H](CCN2C(=O)CN2CCOCC2)[C@H]1CO`, the viability index is 1.04 ± 0.031.

`CN1C(=O)c2cc(NC(=O)C3CCOCC3)ccc2OC[C@H]2O[C@H](CC(=O)NCc3ccccc3F)CC[C@@H]21` yielded a viability index of 0.913 ± 0.099.

In turn, `C[C@@H]1CCCCO[C@@H](CN(C)Cc2ccncc2)[C@H](C)CN([C@@H](C)CO)C(=O)c2cc(NS(=O)(=O)c3ccc(Cl)cc3)ccc2O1` displayed a viability index of 1.01 ± 0.014.

`CO[C@H]1CC[C@H]2CCOc3ccc(C#N)cc3C(=O)N(C)[C@@H](C)C(=O)N(C)C[C@@H]1O2` registered a viability index of 1.08 ± 0.015.

As for `O=C(C1CC1)N1CC[C@@H]2[C@@H](CO)Nc3ccc(Br)cc3[C@@H]21`, the viability index is 1 ± 0.08.

Consider `C[C@H]1CN([C@@H](C)CO)C(=O)c2c(c3ccccc3n2C)-c2ccccc2CO[C@@H]1CN(C)S(=O)(=O)c1ccc([N+](=O)[O-])cc1`, for which the viability index is 0.936 ± 0.032.

On to `CO[C@H](CN(C)S(=O)(=O)c1cn(C)cn1)[C@H](C)CN(C(=O)Nc1ccc(C(F)(F)F)cc1)[C@@H](C)CO`, for which the viability index came to 1.08 ± 0.038.

`C[C@H]1CN([C@@H](C)CO)C(=O)c2cc(C3=CCCC3)cnc2O[C@@H]1CN(C)C(=O)Nc1ccc(C(F)(F)F)cc1`: the viability index amounted to 0.992 ± 0.025.

`COC(=O)[C@H]1[C@H](CO)[C@H]2Cn3c(ccc(-c4ccncc4)c3=O)[C@H]2N1Cc1ccccc1F`: the viability index was determined as 0.904 ± 0.13.

`CCN1[C@@H]2c3ccc(-c4ccncc4)c(=O)n3C[C@H]1[C@H](CO)[C@H]2C(=O)NCCc1cn(C)cn1` showed a viability index of 0.92 ± 0.029.

`C[C@H](CO)N1C[C@H](C)[C@H](CN(C)S(C)(=O)=O)Oc2ncc(-c3ccc(F)cc3)cc2C1=O` registered a viability index of 1.05 ± 0.077.

Compound `C[C@H]1CN([C@@H](C)CO)C(=O)c2c(c3ccccc3n2C)-c2ccccc2CO[C@@H]1CN(C)C` displayed a viability index of 1.09 ± 0.061.

Regarding `C[C@@H]1CN([C@H](C)CO)C(=O)CCCn2nncc2CO[C@@H]1CN(C)C(=O)Nc1cccc(Oc2ccccn2)c1`, the viability index worked out at 0.984 ± 0.028.

Regarding `C[C@H](CO)N1C[C@H](C)[C@@H](CN(C)S(C)(=O)=O)Oc2ccc(NC(=O)Nc3ccc(F)cc3)cc2CC1=O`, the viability index worked out at 0.965 ± 0.028.

With `CN1C(=O)c2cc(NS(=O)(=O)c3cccc(F)c3)ccc2OC[C@@H]2O[C@H](CC(=O)N3CCc4ccccc4C3)CC[C@@H]21`, the viability index is 0.9112 ± 0.0034.

Turning to `O=C(CN1CCOCC1)N1CC(=O)N2[C@@H](CO)[C@H](c3ccc(-c4cccc(F)c4)cc3)[C@@H]2C1`, the viability index is 1.1 ± 0.027.

The compound `COc1ccc2c3c([C@@H](CO)N(C[C@]33CCN(CC3)C(=O)C3CCCC3)S(C)(=O)=O)n(C)c2c1` gave a viability index of 1.02 ± 0.079.

Compound `O=C1CNC[C@@H]2[C@H](c3ccc(C4=CCCC4)cc3)[C@H](CO)N12` gave a viability index of 1.036 ± 0.0042.

Regarding `O=C(c1ccccn1)N1CC2(C1)[C@H](c1ccccc1)[C@@H](CO)N2Cc1ccc(F)cc1`, the viability index was found to be 1.0485 ± 0.00086.

For `COCCNC(=O)C[C@@H]1CC[C@@H]2[C@H](COC[C@@H](O)CN2C(=O)c2cc(Cl)cc(Cl)c2)O1`, the viability index came out at 0.948 ± 0.032.

Take `C[C@@H]1CN([C@@H](C)CO)C(=O)c2cc(NC(=O)Cn3cnnn3)ccc2O[C@@H]1CN(C)Cc1ccc(C(=O)Nc2ccccc2N)cc1`: the viability index came out at 1 ± 0.11.

In the case of `O=C(C[C@H]1CC[C@@H](NC(=O)c2ccc3c(c2)OCO3)[C@@H](CO)O1)NCc1ccc(Oc2ccccc2)cc1`, the viability index was 1.09 ± 0.022.

`O=C(NC[C@@H]1[C@@H](c2ccccc2)[C@@H](CO)N1Cc1ccccn1)C1CCCC1` registered a viability index of 0.963 ± 0.067.

Compound `CO[C@@H]1CN(C)C(=O)c2ccc(NC(=O)c3cc(C)on3)cc2OC[C@@H](C)NC[C@@H]1C` showed a viability index of 1 ± 0.043.

On to `CCCNC(=O)N[C@H]1C=C[C@@H](CC(=O)N2CCN(C)CC2)O[C@@H]1CO`, for which the viability index turned out to be 0.988 ± 0.032.

In the case of `CC(=O)N1[C@H](CO)[C@@H](c2ccccc2)[C@H]1CN(C)S(=O)(=O)c1ccccc1`, the viability index came to 1.03 ± 0.052.

As for `Cc1ccc(S(=O)(=O)N2CC[C@@H]3[C@H]2c2cc(-c4cccc(C(=O)N(C)C)c4)ccc2N[C@@H]3CO)cc1`, the viability index came out at 0.885 ± 0.055.

For `N#C[C@@H]1[C@@H](c2ccccc2-c2ccccc2F)[C@@H](CO)N1C(=O)C1CCC1`, the viability index was 1.14 ± 0.17.

The record behind these values is the supplement of paper PMC4723716.
